In paper PMC7181608:
Residue numbers refer to the chain shown, from its start. These are yes or no findings as the source states them, for the method shown. In cells and extracts the contact can be indirect. Some results given as binding are weak or reduced against the parent protein; the word gives no strength. For part of these data: Tags and fused reporters may be left off the sequences shown.

Amino acid sequences for entries named in this document (tags omitted).
UniProt P13010: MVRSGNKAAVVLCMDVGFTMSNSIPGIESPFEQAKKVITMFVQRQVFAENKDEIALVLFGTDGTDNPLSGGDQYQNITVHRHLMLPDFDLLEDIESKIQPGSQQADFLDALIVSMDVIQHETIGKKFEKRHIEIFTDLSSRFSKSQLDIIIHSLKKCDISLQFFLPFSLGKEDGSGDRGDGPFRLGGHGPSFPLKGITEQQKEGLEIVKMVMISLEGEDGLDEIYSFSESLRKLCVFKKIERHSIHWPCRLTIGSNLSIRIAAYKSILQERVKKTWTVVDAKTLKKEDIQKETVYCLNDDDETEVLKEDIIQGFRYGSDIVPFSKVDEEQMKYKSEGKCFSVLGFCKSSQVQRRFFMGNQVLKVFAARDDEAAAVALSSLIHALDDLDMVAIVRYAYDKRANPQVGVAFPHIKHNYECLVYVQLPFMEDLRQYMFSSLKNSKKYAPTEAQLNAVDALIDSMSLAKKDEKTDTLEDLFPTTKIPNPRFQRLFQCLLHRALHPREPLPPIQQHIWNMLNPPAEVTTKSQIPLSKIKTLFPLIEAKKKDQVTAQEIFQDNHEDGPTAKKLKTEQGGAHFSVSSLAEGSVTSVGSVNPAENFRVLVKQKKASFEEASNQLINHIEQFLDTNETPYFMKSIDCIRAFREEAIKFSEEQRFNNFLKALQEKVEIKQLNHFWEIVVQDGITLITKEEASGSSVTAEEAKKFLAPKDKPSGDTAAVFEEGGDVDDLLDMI
UniProt P12956: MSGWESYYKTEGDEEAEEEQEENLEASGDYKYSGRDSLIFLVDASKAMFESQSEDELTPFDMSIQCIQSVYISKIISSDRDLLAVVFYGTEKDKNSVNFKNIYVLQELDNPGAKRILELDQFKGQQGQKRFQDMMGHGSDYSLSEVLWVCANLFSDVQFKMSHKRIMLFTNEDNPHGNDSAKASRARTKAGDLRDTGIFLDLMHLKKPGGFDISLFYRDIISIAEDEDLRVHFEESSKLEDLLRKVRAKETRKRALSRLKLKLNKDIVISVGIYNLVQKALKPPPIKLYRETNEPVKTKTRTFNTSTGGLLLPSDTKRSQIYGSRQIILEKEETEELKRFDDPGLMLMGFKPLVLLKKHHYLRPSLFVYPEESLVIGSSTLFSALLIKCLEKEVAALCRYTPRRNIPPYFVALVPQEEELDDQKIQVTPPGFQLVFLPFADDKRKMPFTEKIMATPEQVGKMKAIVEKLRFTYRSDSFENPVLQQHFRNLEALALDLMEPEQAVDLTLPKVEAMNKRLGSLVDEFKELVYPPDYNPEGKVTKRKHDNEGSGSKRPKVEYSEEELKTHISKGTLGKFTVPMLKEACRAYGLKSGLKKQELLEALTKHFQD

Legend:
[1] = target: T1, Myc-tagged FOXL2 N105S (human) (UniProt P58012); experiment: co-IP; 293T cells transfected with Myc-tagged FOXL2 forms (with Flag-XRCC5 or XRCC6 fragments where indicated); IP with anti-Myc, immunoblot
T1 sequence: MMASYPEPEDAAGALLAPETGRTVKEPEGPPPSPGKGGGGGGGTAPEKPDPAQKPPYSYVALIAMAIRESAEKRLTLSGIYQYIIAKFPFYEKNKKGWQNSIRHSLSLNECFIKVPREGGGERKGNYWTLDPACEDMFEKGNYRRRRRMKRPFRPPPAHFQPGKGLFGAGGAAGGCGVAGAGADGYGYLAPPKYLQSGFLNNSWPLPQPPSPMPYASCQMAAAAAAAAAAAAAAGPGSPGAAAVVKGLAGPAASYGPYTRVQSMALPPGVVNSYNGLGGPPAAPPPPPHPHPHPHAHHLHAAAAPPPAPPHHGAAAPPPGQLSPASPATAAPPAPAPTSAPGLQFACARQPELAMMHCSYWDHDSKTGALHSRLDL

[2] = target: T2, Myc-tagged FOXL2 Q53X (human) (UniProt P58012); experiment: as above
T2 sequence: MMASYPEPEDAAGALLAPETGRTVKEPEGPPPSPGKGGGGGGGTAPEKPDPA

[3] = target: T3, Myc-tagged FOXL2 F167X (human) (UniProt P58012); experiment: as above
T3 sequence: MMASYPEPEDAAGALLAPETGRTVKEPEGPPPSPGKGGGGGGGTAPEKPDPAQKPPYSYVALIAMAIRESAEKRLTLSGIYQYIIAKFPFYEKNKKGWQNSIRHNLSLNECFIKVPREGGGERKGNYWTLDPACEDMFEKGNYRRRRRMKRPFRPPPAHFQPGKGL

[4] = target: T4, Myc-tagged FOXL2 I80T (human) (UniProt P58012); experiment: as above
T4 sequence: T1 sequence with I80T, S105N

[5] = target: T5, Myc-tagged FOXL2 K124Q (human) (UniProt P58012); experiment: co-IP; KGN cells transfected with Myc-FOXL2 WT or lysine mutants, with and without UV; IP with anti-Myc, immunoblot, bands quantified
T5 sequence: T1 sequence with S105N, K124Q

[6] = target: T6, Myc-tagged full-length wild-type (WT) FOXL2 (human) (UniProt P58012); experiment: as above
T6 sequence: T1 sequence with S105N

[7] = target: T7, Myc-tagged FOXL2 K124R (human) (UniProt P58012); experiment: as above
T7 sequence: T1 sequence with S105N, K124R

[8] = target: T8, Forkhead box protein L2 (FOXL2), endogenous (human (endogenous in KGN)) (UniProt P58012); experiment: co-IP; KGN lysate with ethidium bromide (50 μg/ml) or DNase I (10 U) added; IP with anti-FOXL2, western blot
T8 sequence: T1 sequence with S105N

[9] = target: T8, Forkhead box protein L2 (FOXL2), endogenous (human (endogenous in KGN)); experiment: co-IP; endogenous proteins in other types of cancer cells, with and without UV (Supplementary Fig. 7a-c)

| Substance | binding [1] | binding [2] | binding [3] | binding [4] | binding [5] | binding [6] | binding [7] | binding [8] | binding [9] |
| --- | --- | --- | --- | --- | --- | --- | --- | --- | --- |
| XRCC5 (Ku80), endogenous (from UniProt P13010 1-732) | binds | no binding | binds | no binding | binds | binds | binds weakly | binds | binds |
| XRCC6 (Ku70), endogenous (from UniProt P12956 1-609) | binds | no binding | binds | no binding | binds | binds | binds weakly | binds | binds |
